# Measured values published in the supplement of paper PMC8728848.
# The list shows a part of the results.
# B1: Cohesin-hDECTIN-1 (Homo sapiens) (protein)
# chain: LDITSHHHHHHDDLDAVRIKVDTVNAKPGDTVRIPVRFSGIPSKGIANCDFVYSYDPNVLEIIEIEPGDIIVDPNPDKSFDTAVYPDRKIIVFLFAEDSGTGAYAITKDGVFATIVAKVKEGAPNGLSVIKFVEVGGFANNDLVEQKTQFFDGGVNVGDTTEPATPTTPVTTPTTTDDLDAASSSPCPPNWIIYEKSCYLFSMSLNSWDGSKRQCWQLGSNLLKIDSSNELGFIVKQVSSQPDNSFWIGLSRPQTEVPWLWEDGSTFSSNLFQIRTTATQENPSPNCVWIHVSVIYDQLCSVPSYSICEKKFM
# Experiments:
# Test in all cases: glycan array binding signal (z-score within array); higher = stronger binding
# Settings in all cases: glycan notation: IUPAC condensed, linker removed
# [1] = molecular target: Gal(b1-3)GlcNAc(b1-2)Man(a1-3)[Gal(b1-3)GlcNAc(b1-2)Man(a1-6)]Man(b1-4)GlcNAc(b1-4)[Fuc(a1-6)]GlcNAc
# In short: (§1)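 Glycan array binding is given as a within-array Z-score, which can be read as non-binding when negative. The arrays, 3228 of them, came from the Consortium for Functional Glycomics database and were retained only where the protein sequence was available. Z-scores were averaged across arrays of the same protein sequence at different concentrations or buffers and across linkers.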
# [2] = molecular target: Gal(b1-3)GlcNAc(b1-2)Man(a1-3)[GlcNAc(b1-4)][Gal(b1-3)GlcNAc(b1-2)Man(a1-6)]Man(b1-4)GlcNAc(b1-4)GlcNAc
# In short: as §1
# [3] = molecular target: Gal(b1-3)GlcNAc(b1-2)[Gal(b1-3)GlcNAc(b1-6)]Man(a1-6)[Gal(b1-3)GlcNAc(b1-2)Man(a1-3)]Man(b1-4)GlcNAc(b1-4)GlcNAc
# In short: as §1
# [4] = molecular target: Gal(b1-3)GlcNAc(b1-3)Gal(b1-3)GlcNAc
# In short: as §1
# [5] = molecular target: Gal(b1-3)GlcNAc(b1-3)Gal(b1-4)Glc
# In short: as §1
# [6] = molecular target: Gal(b1-3)GlcNAc(b1-3)Gal(b1-4)GlcNAc
# In short: as §1
# [7] = molecular target: Gal(b1-3)GlcNAc(b1-3)Gal(b1-4)GlcNAc(b1-2)Man(a1-3)[Gal(b1-3)GlcNAc(b1-3)Gal(b1-4)GlcNAc(b1-2)Man(a1-6)]Man(b1-4)GlcNAc(b1-4)GlcNAc
# In short: as §1
# [8] = molecular target: Gal(b1-3)GlcNAc(b1-3)Gal(b1-4)GlcNAc(b1-2)[Gal(b1-3)GlcNAc(b1-3)Gal(b1-4)GlcNAc(b1-6)]Man(a1-6)[Gal(b1-3)GlcNAc(b1-3)Gal(b1-4)GlcNAc(b1-2)Man(a1-3)]Man(b1-4)GlcNAc(b1-4)[Fuc(a1-6)]GlcNAc
# In short: as §1
# [9] = molecular target: Gal(b1-3)GlcNAc(b1-3)Gal(b1-4)GlcNAc(b1-3)Gal(b1-4)GlcNAc(b1-2)[Gal(b1-3)GlcNAc(b1-3)Gal(b1-4)GlcNAc(b1-3)Gal(b1-4)GlcNAc(b1-6)]Man(a1-6)[Gal(b1-3)GlcNAc(b1-3)Gal(b1-4)GlcNAc(b1-3)Gal(b1-4)GlcNAc(b1-2)Man(a1-3)]Man(b1-4)GlcNAc(b1-4)[Fuc(a1-6)]GlcNAc
# In short: as §1
# [10] = molecular target: Gal(b1-3)GlcNAc(b1-3)Gal(b1-4)GlcNAc(b1-6)[Gal(b1-3)GlcNAc(b1-3)]Gal(b1-4)Glc
# In short: as §1
# [11] = molecular target: Gal(b1-3)GlcNAc(b1-3)Gal(b1-4)[Fuc(a1-3)]GlcNAc
# In short: as §1
# [12] = molecular target: Gal(b1-3)GlcNAc(b1-3)Gal(b1-4)[Fuc(a1-3)]GlcNAc(b1-6)[Gal(b1-3)GlcNAc(b1-3)]Gal(b1-4)Glc
# In short: as §1
# [13] = molecular target: Gal(b1-3)GlcNAc(b1-3)GalNAc
# In short: as §1
# [14] = molecular target: Gal(b1-3)GlcNAc(b1-6)Gal(b1-4)GlcNAc
# In short: as §1
# [15] = molecular target: Gal(b1-3)GlcNAc(b1-6)GalNAc
# In short: as §1
# [16] = molecular target: Gal(b1-3)GlcNAc(b1-6)[Gal(b1-3)]GalNAc
# In short: as §1
# Gal(b1-3)GlcNAc6S = molecular target: Gal(b1-3)GlcNAc6S
# In short: as §1
# [17] = molecular target: Gal(b1-3)[Fuc(a1-4)]GlcNAc
# In short: as §1
# [18] = molecular target: Gal(b1-3)[Fuc(a1-4)]GlcNAc(b1-2)Man
# In short: as §1
# [19] = molecular target: Gal(b1-3)[Fuc(a1-4)]GlcNAc(b1-2)Man(a1-3)[Gal(b1-3)[Fuc(a1-4)]GlcNAc(b1-2)Man(a1-6)]Man(b1-4)GlcNAc(b1-4)[Fuc(a1-6)]GlcNAc
# In short: as §1
# [20] = molecular target: Gal(b1-3)[Fuc(a1-4)]GlcNAc(b1-3)Gal(b1-3)[Fuc(a1-4)]GlcNAc
# In short: as §1
# [21] = molecular target: Gal(b1-3)[Fuc(a1-4)]GlcNAc(b1-3)Gal(b1-4)[Fuc(a1-3)]GlcNAc
# In short: as §1
# [22] = molecular target: Gal(b1-3)[Fuc(a1-4)]GlcNAc(b1-6)GalNAc
# In short: as §1
# [23] = molecular target: Gal(b1-3)[GlcNAc(b1-6)]GalNAc
# In short: as §1
# [24] = molecular target: Gal(b1-3)[Neu5Ac(a2-6)]GalNAc
# In short: as §1
# [25] = molecular target: Gal(b1-3)[Neu5Ac(a2-6)]GlcNAc(b1-4)Gal(b1-4)Glc
# In short: as §1
# [26] = molecular target: Gal(b1-3)[Neu5Ac(b2-6)]GalNAc
# In short: as §1
# Gal(b1-4)Gal = molecular target: Gal(b1-4)Gal
# In short: as §1
# [27] = molecular target: Gal(b1-4)GalNAc(a1-3)[Fuc(a1-2)]Gal(b1-4)GlcNAc
# In short: as §1
# [28] = molecular target: Gal(b1-4)GalNAc(b1-3)[Fuc(a1-2)]Gal(b1-4)GlcNAc
# In short: as §1
# Gal(b1-4)Glc = molecular target: Gal(b1-4)Glc
# In short: as §1
# Gal(b1-4)Glc6S = molecular target: Gal(b1-4)Glc6S
# In short: as §1
# Gal(b1-4)GlcNAc = molecular target: Gal(b1-4)GlcNAc
# In short: as §1
# [29] = molecular target: Gal(b1-4)GlcNAc(a1-6)Gal(b1-4)GlcNAc
# In short: as §1
# Gal(b1-4)GlcNAc(b1-2)Man = molecular target: Gal(b1-4)GlcNAc(b1-2)Man
# In short: as §1
# [30] = molecular target: Gal(b1-4)GlcNAc(b1-2)Man(a1-3)Man(b1-4)GlcNAc(b1-4)GlcNAc
# In short: as §1
# [31] = molecular target: Gal(b1-4)GlcNAc(b1-2)Man(a1-3)[Gal(b1-4)GlcNAc(b1-2)Man(a1-6)]Man(b1-4)GlcNAc(b1-4)GlcNAc
# In short: as §1
binder,measurement,setting,value
B1,glycan array binding signal (z-score),[1],-0.176
same,glycan array binding signal (z-score),[2],-0.248
same,glycan array binding signal (z-score),[3],-0.531
same,glycan array binding signal (z-score),[4],-0.404
same,glycan array binding signal (z-score),[5],-0.403
same,glycan array binding signal (z-score),[6],-0.464
same,glycan array binding signal (z-score),[7],0.321
same,glycan array binding signal (z-score),[8],-0.221
same,glycan array binding signal (z-score),[9],0.097
same,glycan array binding signal (z-score),[10],-0.595
same,glycan array binding signal (z-score),[11],-0.431
same,glycan array binding signal (z-score),[12],-0.496
same,glycan array binding signal (z-score),[13],-0.392
same,glycan array binding signal (z-score),[14],-0.213
same,glycan array binding signal (z-score),[15],6.01
same,glycan array binding signal (z-score),[16],-0.299
same,glycan array binding signal (z-score),Gal(b1-3)GlcNAc6S,-0.25
same,glycan array binding signal (z-score),[17],-0.306
same,glycan array binding signal (z-score),[18],-0.339
same,glycan array binding signal (z-score),[19],0.234
same,glycan array binding signal (z-score),[20],1
same,glycan array binding signal (z-score),[21],-0.364
same,glycan array binding signal (z-score),[22],0.14
same,glycan array binding signal (z-score),[23],-0.351
same,glycan array binding signal (z-score),[24],-0.408
same,glycan array binding signal (z-score),[25],0.121
same,glycan array binding signal (z-score),[26],-0.465
same,glycan array binding signal (z-score),Gal(b1-4)Gal,-0.415
same,glycan array binding signal (z-score),[27],0.045
same,glycan array binding signal (z-score),[28],-0.067
same,glycan array binding signal (z-score),Gal(b1-4)Glc,-0.373
same,glycan array binding signal (z-score),Gal(b1-4)Glc6S,-0.485
same,glycan array binding signal (z-score),Gal(b1-4)GlcNAc,-0.424
same,glycan array binding signal (z-score),[29],-0.267
same,glycan array binding signal (z-score),Gal(b1-4)GlcNAc(b1-2)Man,-0.296
same,glycan array binding signal (z-score),[30],-0.185
same,glycan array binding signal (z-score),[31],-0.071
